Laboratory results reported in the RNAGym collection of RNA variant scans (doi:10.7554/elife.90254).
The source gives no read counts; variants with many changes may rest on few reads.

B1: LINE1-mini (parent)
chain: GGCAGAGCUCAACACAGCGUGGCAAAGUGGCUGUGGCUAGACUGCC

Variants of: B1
Experiment: self-cleavage, relative activity (ratio to wild type); higher = more cleavage; in vitro, sequencing; the parent is a self-cleaving ribozyme

Variant	self-cleavage
G1U A11U G21U	0.09
G2A A25G U38A	0.15
C15A G33A C37G A41C	0.01
A26G G35A U38G	0
G2A C8G C15G C18A G19C	0.02
U9C C13A U20G U32G U34C	0
G1U C13A U20G G27C U38A	0
G19U G30U G33U C37A	0.05
C8A A16G C31U G33A C37U	1.13
G17C G21A C45U	0.92
A16U C18G U32G A41U	0.02
C3U C8G C15U G19U U32G	0.03
C8A A14G C31G U34A	0.11
C8A C15U G17U G19C A24C G40A G44C	0.07
A12U C18G C23G	0.03
G2A G5U C10U A16U G21C G30U	0.07
G33A G36A G40C	0.1
G22A G33A G36U G40U	0.01
C3G C18A C42U U43A	0.03
C3A C8G U28C U34C	0.2
U9C C13G G30A	0.02
C3U G7U A26C U32A	0.13
C10U C18A U38G	0.04
G5A A14G A24U U38G	0.1

Variant	self-cleavage
C18U C31G G36C C45U	0.02
G2A C3A U43C	0.28
A4G U20C G29U	0.17
A11U G22U A39G	0.09
G21C C31A G36C A41U	0.12
C15A A16C G29U	0.01
A16G G44A C45U	0.04
A4C U9C C15A A24C G35C C46A	0.01
G19U G30C C31G G40A	0.05
G1U C13A A41U	0.03
A6G G19U G29A	0.04
G1C G2U C3U A12C C31G U38A	0.01
G1A G17A A26G	0.2
A14G C18G G33U	0.06
C3G G33U U38G	0.07
G7C A26C U28G	0.02
G5C A6U U20C	0.06
A4G G19A A41U	0.01
G21A C31G A39U	0.04
C18G G22U C31A	0.1
G17C G27U G40U C42G C46U	0.06
G5U C10A G30A	0.02
A6C C8G C18U G29A U38C C46G	0.01
G2C G36A A41U U43A	0.03

Variant	self-cleavage
G1A G7C A12G G29U G30A	0.09
G2U C18A G27U	0.03
C3U A24G U34G C37A	0.29
A6U A25U C45A	0.88
C8U C15U G19C C42A	0.02
C3U G29U G30A C31G G40A C45U	0.05
A16U G19U U28C C31G G35A	0.14
G17C G33U C42A	0.06
C18G U20A G29U C37G	0.01
A14C A26C G30C C37A	0.03
C8U A16U G30C C42A	0.07
G7C C13G A25G	0.11
C10G C23G A26C	0.35
A6U C8A G19U G27C A41C C45G	0.11
G2C A4G C42U	0.07
A6U A11G G17U	0.02
G5C C37A C45U	0.84
A14U U20G C42G C45U	0.07
A12U G21U G44A C46U	0.33
G5A G29U G36U	0.07
A6U G22U A39C	0.29
C13A A25U G33A U38G A39G C42G	0.02
A4C C15U A39U	0.07
C3A C31U U38G	0.08

Variant	self-cleavage
U9C C18A U34C	0.02
C8A C31A U38C	0.19
G5U U9C A14C	0.01
A24G G36A A39G G44A	0.61
G36A A39G G44A	0.08
G2C A16G C23A	0.1
G2U G7C G22A C31U	0.03
G1C U28A G30A	0.03
G2C U9C U20A	0.02
G1C G21U G33A G40C A41U	0.01
U9A G27U A41G	0.13
G19U U20C G22U A25U	0.8
C3A A24G C45U	0.26
A11G C18A U32C G40A	0.01
G5U U9C C10A C31G	0.01
C13A A25U G27C G40U	0.1
C8G A24U G27A	0.14
C8G A12G U28A C37U	0.03
G5C C10A U32A	0.02
G2U A12U G17A	0.03
C8U C13G G27U	0.08
C8A C15U A25C	0.41
A14C A41C C46G	0.03
C15U G17A C42A G44U	0.01

Variant	self-cleavage
C10G U28G C45U	0.13
C3U A4U A6C C15G	0.04
C23A A39U G40C C42G U43C	0.01
A6C C18A U34G C46U	0.01
G1U C3A A11C G27A	0.1
C3A A16U C45A	0.03
G5U U32A G36U C37G	0.03
G1U A16G C37G	0.02
C10A A16G G17A G21U G30U C37G A39U C46G	0
C3U C23U C42G U43C	0.16
G5C C8A G17A G19C A25C G40C	0.03
C10G A12U C23U A41C G44C	0.01
G1U A6C C8G U9G C42U	0.02
G5C A11C A12C U20C A25G	0.01
G1C A24C A41U	0.05
A16G C31G U34C A39G A41C	0.02
G1U A6U C15U	0.04
A6G C18G G19U G30U G40A	0.06
U9A C10A U43G C45U	0.07
G1A G7C U9A	0.07
A4U G27C U38A A39G A41U C42U	0.05
G5U A14G A41U	0.09
C13G G36C C45U	0.06
C10A A11U G35U	0.01

Variant	self-cleavage
G2U G17A G33A U38A	0.01
C23U C31U G40C	0.02
A4G G7A A11G A39U	0.03
C8G G19C C31A G36A	0.04
C3A A16C A25U	0.01
C3U G5C A25G G33A	0.15
G1A A4C A6C	0
G5U A16G G21U	0.07
G1A C10A G30A	0
G2U A12U G35A	0
G7A A12U A16U G27U G35U	0.89
G7A C8U A24U C31U	0.19
A6C G21U G44C	0.06
A12C A16G U20G G33U	0.02
G22A U34A G35U C42G	0.02
G2U G19C C46A	0.04
U32G C37A C45U	0.02
G5U G7U G27A	0.08
C15G C18U G30C	0.06
G5C G22U C23U U38A A39U	0.01
A6G C31U A39G	0.01
A6U G7C C10G U34A	0.03
A4G A24C G33C	0
C8G A14U U20C A26C U34G	0

Variant	self-cleavage
A26G U32C G33C	0.02
A14G G17C G29U	0.09
G2U G22A A24U U34A	0.01
G17C U20C C31A	0.48
A11C A12C A25U C45A	0.02
C15A G22A G36U	0.1
G1U A24G G27C G40U	0.04
A12C U20C A25C G36A	0.02
C3G C8A A24G C31G	0.27
G5A A24U G35U U43A G44C	0.05
A4U G22U G33U	0.07
C15G A25U A41C	0.1
G5U G7C C31G G35C	0.06
A12G G27A G44C	0.03
U9A U28A G30U C42G	0.11
G1C G7A U34A C42A	0.01
G5A U9A C15A G27A	0.37
C3U C13U A25C G36U U38G A41G C45A	0.04
G36U U43C C45G	0.04
U9A A16G G35U C42A	0.03
A4C C37A A39C	0.19
C8A U9A A16G G19C	0.01
C8G C18A C23U G36A	0
